# Measurements reported in the supplement of paper PMC3334620.
# Whole data set: some 33,000 sequences, median “E-score (-0.5 to 0.5)” near -0.054, cut for the highest 2% near 0.35. The list shows a part of the results.
# Molecular target: T1, Stb5 (UniProt P38699)
# T1 sequence: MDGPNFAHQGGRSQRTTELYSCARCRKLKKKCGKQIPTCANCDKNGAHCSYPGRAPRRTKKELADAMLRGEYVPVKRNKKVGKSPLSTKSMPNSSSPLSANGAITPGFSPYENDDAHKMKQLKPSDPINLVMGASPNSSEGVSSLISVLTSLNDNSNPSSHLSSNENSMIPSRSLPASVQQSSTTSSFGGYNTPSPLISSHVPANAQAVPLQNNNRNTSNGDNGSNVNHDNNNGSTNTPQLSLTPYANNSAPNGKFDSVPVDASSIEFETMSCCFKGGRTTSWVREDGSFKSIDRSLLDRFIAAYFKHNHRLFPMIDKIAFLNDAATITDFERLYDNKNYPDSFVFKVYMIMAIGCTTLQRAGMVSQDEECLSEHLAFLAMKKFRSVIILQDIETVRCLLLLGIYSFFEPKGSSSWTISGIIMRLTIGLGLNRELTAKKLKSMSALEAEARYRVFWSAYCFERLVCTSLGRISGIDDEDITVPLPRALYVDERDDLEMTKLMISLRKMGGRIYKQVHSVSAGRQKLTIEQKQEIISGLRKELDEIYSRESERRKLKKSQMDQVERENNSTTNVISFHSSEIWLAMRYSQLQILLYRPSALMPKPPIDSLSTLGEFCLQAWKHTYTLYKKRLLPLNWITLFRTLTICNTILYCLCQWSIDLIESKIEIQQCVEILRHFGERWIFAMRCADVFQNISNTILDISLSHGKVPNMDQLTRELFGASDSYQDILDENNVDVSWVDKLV
# Experiment: PBM E-score (8-mer binding enrichment) (E-score (-0.5 to 0.5)); higher = stronger / more preferred TF binding; most listed sequences are background and not binding sites
# Conditions: protein concentration: 200 nM; construct: GST-full length
# Method in brief: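 Detection of bound protein used fluorescent anti-GST, with scans normalised by masliner. The proteins were GST-tagged yeast transcription factors applied at about 100-200 nM to universal all-10-mer Agilent arrays made double-stranded by primer extension. Each ungapped eight-base word, pooled with its reverse complement, was scored with an E-score from the Universal PBM Analysis Suite.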
row,Sequence,PBM E-score
1,ACGCGCAA,0.102
2,GTGACTCA,-0.153
3,GCAGTCAC,-0.206
4,ACCACCTG,-0.0493
5,AATTGTTG,-0.215
6,CGATGCCA,-0.0879
7,CACTCATA,-0.162
8,ACAGATTG,-0.144
9,GATAAAGA,-0.0231
10,AAGGGCTC,-0.296
11,ATGACGAC,-0.12
12,GTCAACCA,-0.194
13,CGTCATTA,0.103
14,CGTTTATC,-0.00571
15,ATCATCCC,0.131
16,AACCAACA,-0.0255
17,ACTAAACA,-0.143
18,ATAGTGGG,-0.0958
19,ACCACGCG,0.0234
20,CGCGTGGA,0.0379
21,CGTGGCAG,-0.242
22,GTTAGGGA,-0.225
23,AGTGACCG,0.09
24,GCCTAGGC,-0.0482
25,CCTGGCTC,-0.184

row,Sequence,PBM E-score
1,ACGTCTAG,-0.198
2,ACTCACGG,0.172
3,CCGACGAA,0.293
4,CAGTAAGA,-0.121
5,ACCGTGGA,0.299
6,AGTGGTGC,-0.0849
7,AGGTGAGC,-0.045
8,ACCCCCTG,-0.11
9,GCCTGACC,0.0907
10,GTAATGGA,-0.116
11,GACCATGC,-0.196
12,AAGACTTC,-0.218
13,CCGTCAGG,0.0905
14,CCGATACG,0.31
15,ACTCCTGG,-0.152
16,AACGAACA,0.09
17,GGCGCCGA,0.282
18,AGCCTGCC,-0.229
19,TCCAAAAA,-0.0241
20,CAACGTCA,-0.267
21,GAGACCGA,0.257
22,AACCGCGT,0.186
23,CTAGGAGA,-0.2
24,CACGTTCG,-0.0575
25,ATACAAAC,0.0434

row,Sequence,PBM E-score
1,ATAGGCCG,0.219
2,CACAGGTC,-0.107
3,GTACTTAA,-0.00623
4,CCCCTAAG,-0.23
5,CGTTGCCC,0.0438
6,GAATTGGA,-0.02
7,CATGAACC,-0.0866
8,CACGTAGC,-0.0959
9,TGACTCCA,-0.325
10,TTAATAAA,0.077
11,ATTTTCGA,-0.0569
12,GATGTCCC,0.0843
13,GCCTTAGC,0.0356
14,GTGGTCTA,-0.247
15,CCTAACCC,0.0781
16,GTCAGGAC,-0.213
17,AACTAGAA,-0.116
18,ACGATGCT,-0.042
19,ACACCGTC,0.424
20,AGCGCCCG,0.198
21,CTAGTAGA,0.1
22,CTTGGGAA,-0.178
23,CACGGCCC,0.112
24,AATAGAAC,0.00291
25,GCGTTGAA,-0.0254

row,Sequence,PBM E-score
1,CCGCGCCA,0.228
2,CAGTTGAC,-0.0313
3,AATCGCTA,-0.189
4,CCTAAAGC,-0.0714
5,TGAACTCA,-0.189
6,GCCCTGAA,-0.00623
7,GGGAGTAC,0.115
8,ATCCATAC,-0.0934
9,ACCCAACG,0.0646
10,ATGAAATA,-0.0118
11,GGGTAGAA,0.00969
12,ATATGGAC,-0.149
13,CCCATTCC,-0.156
14,GCAGGCCC,-0.107
15,CTTCAACC,-0.0533
16,AAGATTAG,-0.0223
17,AAACTCCC,0.104
18,CCCTGTTC,-0.164
19,TGGCAGAA,-0.0873
20,GATCCCCA,0.00367
21,CGAATCTA,-0.0142
22,CAACTGGG,-0.174
23,GAGCACAC,-0.311
24,ATCTCGCG,-0.0952
25,GTTGCATA,-0.0825

row,Sequence,PBM E-score
1,CTTCCAAG,-0.207
2,AAGCCATG,-0.148
3,ATGTTAAC,-0.0161
4,AGTCTCAG,-0.261
5,ATCTACTA,-0.126
6,ACTGTTTA,-0.204
7,AGCAGCTA,-0.218
8,GACACCGA,0.442
9,AACATAAG,0.0593
10,AACCCACC,0.138
11,CACTCAGG,-0.126
12,GATACTTA,-0.0998
13,CCAATCGA,-0.0932
14,ACTTTCTC,-0.046
15,GTCGATCA,-0.181
16,GGTTTCAA,0.218
17,GCCCGGTA,0.304
18,ATTCGTTA,-0.11
19,AATCTTGA,-0.184
20,ATTTTCCG,0.18
21,CGTAAATA,0.0795
22,ATTGAGCG,0.0357
23,AATGCATG,-0.156
24,CGGACTGC,0.217
25,CAGTTAAC,0.164

row,Sequence,PBM E-score
1,GCTGCCCC,-0.126
2,ACCCATAA,0.159
3,AGGCATGG,0.0415
4,AGATCGAG,-0.156
5,GCCCCCTA,-0.296
6,AGTGCCTG,-0.17
7,GGAAGTCA,-0.0172
8,AGCATGCC,-0.147
9,CACGCTAA,-0.0171
10,CGCCCGCA,0.152
11,AATGCTTA,-0.222
12,AAACGAGA,0.0382
13,GGGGTCAA,0.276
14,ACGGAGCA,0.112
15,ACTTTACT,-0.0977
16,CAACTGGC,-0.0884
17,CCTCCACC,-0.0408
18,ACGATCAA,-0.224
19,GCTGACCC,-0.0109
20,GAGATCGA,-0.0563
21,GCGGCGAA,0.325
22,GGGCTTAA,0.391
23,TAGTAGAA,0.0677
24,ATTGTAGA,-0.205
25,ACTTGGTA,-0.121

row,Sequence,PBM E-score
1,ATACAGTG,-0.279
2,GGGGTACC,0.0195
3,CTGGGGAC,-0.266
4,AGTTATTC,-0.0473
5,AAAGACTG,-0.29
6,GTCGTGCA,-0.103
7,AAGCCTTA,-0.139
8,AGGGTAGG,-0.206
9,AGTGGTTA,-0.171
10,CCATACGC,-0.287
11,GGCTCTTA,0.0283
12,CATATGCG,0.0886
13,AACCTCAA,-0.181
14,ATTTACCG,0.332
15,GTCCGGTA,0.235
16,CGTATTTC,0.0937
17,GATTCGAC,-0.237
18,ATGGATCC,0.166
19,TCGGAAGA,0.142
20,ATGGGGTA,0.0556
21,CGAGGACG,0.109
22,GTACCAAA,-0.149
23,GGGTTGTA,0.00458
24,TGCGCGAA,0.00948
25,TCCATCGA,-0.123

row,Sequence,PBM E-score
1,GGTAGAGA,-0.196
2,AAATCGCG,-0.0128
3,TCTACTAA,-0.173
4,CAATACCA,-0.0726
5,GCGCGCAC,0.11
6,CGGTGACG,0.237
7,CTCATCTC,-0.138
8,ATAACTAT,-0.141
9,TACTAATA,-0.0152
10,GGCATGAC,0.0892
11,AATGCGTG,-0.247
12,AATCCGGA,0.248
13,CGCCTCAA,0.00114
14,CACTTTTA,0.0184
15,CGTGTGTA,-0.0759
16,GTCGAGTA,-0.0695
17,AACGCGAA,-0.0613
18,GTTAGACA,-0.0341
19,AGTGAGTA,-0.235
20,ACGCCGCC,0.41
21,GCCTTGAC,0.00816
22,AAGTAACA,-0.0849
23,AAAAAGGT,-0.0765
24,ACTACGAG,-0.124
25,CCGCTGAA,0.139

row,Sequence,PBM E-score
1,CCTGCTCA,-0.271
2,TATTTGAA,0.0374
3,CCAACACA,-0.162
4,ATTGAAGC,-0.05
5,AATCGCAT,0.00135
6,AAGGTCTA,-0.0822
7,ACTCATAC,-0.0801
8,CTTAGACA,-0.218
9,CCAGCGGC,0.232
10,CTAGTAGC,0.00336
11,CCTTAGCG,0.0261
12,GCCCAGAA,-0.237
13,ACAAACGA,-0.0687
14,TCAGTGGA,-0.115
15,CCAGCCGG,0.114
16,TCAAAAAA,-0.0615
17,AGTGATAG,-0.156
18,TGCACGAA,-0.0322
19,ACTGTTAT,-0.0687
